Biological target: T1, human M2 receptor (Homo sapiens, UniProt P08172)
T1 sequence (P08172 1-466): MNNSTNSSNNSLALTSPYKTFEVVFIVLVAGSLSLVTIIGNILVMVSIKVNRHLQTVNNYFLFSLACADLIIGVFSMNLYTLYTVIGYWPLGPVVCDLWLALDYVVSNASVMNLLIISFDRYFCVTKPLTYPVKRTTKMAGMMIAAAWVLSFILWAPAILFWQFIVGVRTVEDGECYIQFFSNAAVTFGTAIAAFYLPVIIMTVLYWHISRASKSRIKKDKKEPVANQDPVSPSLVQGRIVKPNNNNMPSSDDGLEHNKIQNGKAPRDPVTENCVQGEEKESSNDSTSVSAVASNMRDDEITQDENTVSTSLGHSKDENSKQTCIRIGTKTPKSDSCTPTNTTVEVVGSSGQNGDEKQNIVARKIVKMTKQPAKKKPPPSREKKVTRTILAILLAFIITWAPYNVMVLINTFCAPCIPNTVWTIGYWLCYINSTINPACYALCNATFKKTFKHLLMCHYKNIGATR
Settings: boosting of the acetylcholine effect at an EC20 acetylcholine concentration; for Emax: read-out: Efficiency, M2-GIRK1/4 activation test; for Efficiency: M2-GIRK1/4 activation test

SMILES | Emax [%] | Efficiency [%]
CO[C@@H]1CCN(c2ccc3c(=O)c(C(=O)NC45CCC(C)(CC4)CC5)cn(-c4ccc(F)cc4F)c3n2)C1 [Example 19, 1-(2,4-Difluorophenyl)-7-[(3R)-3-methoxypyrrolidin-1-yl]-N-(4-methylbicyclo[2.2.2]oct-1-yl)-4-oxo-1,4-dihydro-1,8-naphthyridine-3-carboxamide] | 95 | –
Cc1ccc(C(NC(=O)c2cn(-c3ccc(F)cc3F)c3nc(N(C)C)ccc3c2=O)C(F)(F)F)cc1 (racemic) [Example 141, rac-1-(2,4-Difluorophenyl)-7-(dimethylamino)-4-oxo-N-[2,2,2-trifluoro-1-(4-methylphenyl)ethyl]-1,4-dihydro-1,8-naphthyridine-3-carboxamide] | 99.4 | –
CC[C@@H](NC(=O)c1cn(-c2c(F)cc(F)cc2F)c2nc(N3CCC(C)(O)C3)ccc2c1=O)C(F)(F)F (stereo partly drawn) [Example 324, 7-[3-Hydroxy-3-methylpyrrolidin-1-yl]-4-oxo-N-[(2R)-1,1,1-trifluorobutan-2-yl]-1-(2,4,6-trifluorophenyl)-1,4-dihydro-1,8-naphthyridine-3-carboxamide] | 97.3 | –
CN(CCF)c1ccc2c(=O)c(C(=O)NC34CC5CC(CC(F)(C5)C3)C4)cn(-c3ccc(F)cc3F)c2n1 [Example 102, 1-(2,4-Difluorophenyl)-7-[(2-fluoroethyl)(methyl)amino]-N-(3-fluorotricyclo[3.3.1.1^3,7]dec-1-yl)-4-oxo-1,4-dihydro-1,8-naphthyridine-3-carboxamide] | 94 | –
O=C(NC(C(F)(F)F)C(F)(F)F)c1cn(-c2ccc(F)cc2F)c2nc(N3CC[C@H](F)C3)ccc2c1=O [Example 70, 1-(2,4-Difluorophenyl)-7-[(3S)-3-fluoropyrrolidin-1-yl]-N-(1,1,1,3,3,3-hexafluoropropan-2-yl)-4-oxo-1,4-dihydro-1,8-naphthyridine-3-carboxamide] | 97.4 | –
CC(C)(CC(F)(F)F)NC(=O)c1cn(-c2c(F)cc(F)cc2F)c2nc(N3C[C@@H](O)[C@H](O)C3)ccc2c1=O [Example 370, 7-[(3R,4R)-3,4-Dihydroxypyrrolidin-1-yl]-4-oxo-N-(4,4,4-trifluoro-2-methylbutan-2-yl)-1-(2,4,6-trifluorophenyl)-1,4-dihydro-1,8-naphthyridine-3-carboxamide] | 97.2 | –
CC[C@H](NC(=O)c1cn(-c2ccc(F)cc2F)c2nc(NCCF)ccc2c1=O)C(F)(F)F [Example 87, 1-(2,4-Difluorophenyl)-7-[(2-fluoroethyl)amino]-4-oxo-N-[(2S)-1,1,1-trifluorobutan-2-yl]-1,4-dihydro-1,8-naphthyridine-3-carboxamide] | 94 | –
O=C1CN(c2ccc3c(=O)c(C(=O)NC45CC6CC(CC(C6)C4)C5)cn(-c4ccc(F)cc4F)c3n2)CCN1 [Example 18, 1-(2,4-Difluorophenyl)-4-oxo-7-(3-oxopiperazin-1-yl)-N-(tricyclo[3.3.1.1^3,7]dec-1-yl)-1,4-dihydro-1,8-naphthyridine-3-carboxamide] | 97.3 | –
CC[C@H](NC(=O)c1cn(-c2c(F)cc(F)cc2F)c2nc(N3CCNC3=O)ccc2c1=O)C(F)(F)F [Example 343, 4-Oxo-7-(2-oxoimidazolidin-1-yl)-N-[(2S)-1,1,1-trifluorobutan-2-yl]-1-(2,4,6-trifluorophenyl)-1,4-dihydro-1,8-naphthyridine-3-carboxamide] | 90.5 | –
N#CC1CCCN(c2ccc3c(=O)c(C(=O)NC45CC6CC(CC(C6)C4)C5)cn(-c4ccc(F)cc4F)c3n2)C1 (stereo not drawn) [Example 10, 7-(3-Cyanopiperidin-1-yl)-1-(2,4-difluorophenyl)-4-oxo-N-(tricyclo[3.3.1.1^3,7]dec-1-yl)-1,4-dihydro-1,8-naphthyridine-3-carboxamide] | 98.5 | –
CC[C@@H](NC(=O)c1cn(-c2ccc(F)cc2F)c2nc(N3CCC4(C3)CC4(F)F)ccc2c1=O)C(F)(F)F (mixture of isomers) [Example 29, 7-(1,1-Difluoro-5-azaspiro[2.4]hept-5-yl)-1-(2,4-difluorophenyl)-4-oxo-N-[(2R)-1,1,1-trifluorobutan-2-yl]-1,4-dihydro-1,8-naphthyridine-3-carboxamide (diastereomer mixture)] | 95.3 | –
CC(C)(CC(F)(F)F)NC(=O)c1cn(-c2c(F)cc(F)cc2Cl)c2nc(N3C[C@@H](O)[C@H](O)C3)ccc2c1=O (single isomer, unassigned) [Example 392] | 100 | –
O=C(NC12CC3CC(CC(C3)C1)C2)c1cn(-c2ccc(F)cc2F)c2nc(N3CCCC(F)(F)C3)ccc2c1=O [Example 1, 1-(2,4-Difluorophenyl)-7-(3,3-difluoropiperidin-1-yl)-4-oxo-N-(tricyclo[3.3.1.1^3,7]dec-1-yl)-1,4-dihydro-1,8-naphthyridine-3-carboxamide] | 97.5 | –
CC[C@@H](NC(=O)c1cn(-c2ccc(F)cc2F)c2nc(N3CCC(C)(F)C3)ccc2c1=O)C(F)(F)F (mixture of isomers) [Example 30, 1-(2,4-Difluorophenyl)-7-(3-fluoro-3-methylpyrrolidin-1-yl)-4-oxo-N-[(2R)-1,1,1-trifluorobutan-2-yl]-1,4-dihydro-1,8-naphthyridine-3-carboxamide (diastereomer mixture)] | 93.3 | –

Second part, the molecule after the results:

Emax [%] | Efficiency [%] | SMILES
100 | – | CC[C@@H](NC(=O)c1cn(-c2ccc(F)cc2F)c2nc(N3C[C@@H](OC)CC3=O)ccc2c1=O)C(F)(F)F [Example 193, 1-(2,4-Difluorophenyl)-7-[(4S)-4-methoxy-2-oxopyrrolidin-1-yl]-4-oxo-N-[(2R)-1,1,1-trifluorobutan-2-yl]-1,4-dihydro-1,8-naphthyridine-3-carboxamide]
– | 100.0 | CC(NC(=O)c1cn(-c2ccc(F)cc2F)c2nc(N3C[C@@H](O)CC3=O)ccc2c1=O)c1c(F)cccc1F (single isomer, unassigned) [Example 216]
92.3 | – | O=C(NC1(C(F)(F)F)CCOC1)c1cn(-c2ccc(F)cc2F)c2nc(N3C[C@@H](O)CC3=O)ccc2c1=O (mixture of isomers) [Example 238, 1-(2,4-Difluorophenyl)-7-[(4S)-4-hydroxy-2-oxopyrrolidin-1-yl]-4-oxo-N-[3-(trifluoromethyl)tetrahydrofuran-3-yl]-1,4-dihydro-1,8-naphthyridine-3-carboxamide]
86 | – | CN(C)c1ccc2c(=O)c(C(=O)NCc3c(Cl)cccc3Cl)cn(-c3ccc(F)cc3F)c2n1 [Example 49, N-(2,6-Dichlorobenzyl)-1-(2,4-difluorophenyl)-7-(dimethylamino)-4-oxo-1,4-dihydro-1,8-naphthyridine-3-carboxamide]
– | 94.0 | O=C(NC(c1c(F)cccc1F)C(F)(F)F)c1cn(-c2ccc(F)cc2F)c2nc(N3CCC(O)CC3=O)ccc2c1=O (single isomer, unassigned) [Example 254, 1-(2,4-Difluorophenyl)-N-[1-(2,6-difluorophenyl)-2,2,2-trifluoroethyl]-7-[4-hydroxy-2-oxopiperidin-1-yl]-4-oxo-1,4-dihydro-1,8-naphthyridine-3-carboxamide]
66.3 | – | CC(COC(F)(F)F)NC(=O)c1cn(-c2ccc(F)cc2F)c2nc(N3CCCC3=O)ccc2c1=O (racemic) [Example 230, rac-1-(2,4-Difluorophenyl)-4-oxo-7-(2-oxopyrrolidin-1-yl)-N-[1-(trifluoromethoxy)propan-2-yl]-1,4-dihydro-1,8-naphthyridine-3-carboxamide]
89.7 | – | CC[C@H](NC(=O)c1cn(-c2ccc(F)cc2F)c2nc(N3CC[C@H](F)C3)ccc2c1=O)C(F)(F)F [Example 64, 1-(2,4-Difluorophenyl)-7-[(3S)-3-fluoropyrrolidin-1-yl]-4-oxo-N-[(2S)-1,1,1-trifluorobutan-2-yl]-1,4-dihydro-1,8-naphthyridine-3-carboxamide]
97.3 | – | O=C(N[C@@H](C1CC1)C(F)(F)F)c1cn(-c2c(F)cccc2F)c2nc(N3C[C@@H](O)CC3=O)ccc2c1=O (single isomer, unassigned) [Example 297]
100 | – | CC[C@@H](NC(=O)c1cn(-c2ccc(F)cc2F)c2nc(N3CC4C(C3)C4(F)F)ccc2c1=O)C(F)(F)F (stereo partly drawn) [Example 28, 7-(6,6-Difluoro-3-azabicyclo[3.1.0]hex-3-yl)-1-(2,4-difluorophenyl)-4-oxo-N-[(2R)-1,1,1-trifluorobutan-2-yl]-1,4-dihydro-1,8-naphthyridine-3-carboxamide]
84 | – | O=C(NC(c1ccccc1Cl)C(F)(F)F)c1cn(-c2ccccc2F)c2nc(N3CCC(O)C3=O)ccc2c1=O (single isomer, unassigned) [Example 288]
87 | – | CCC(NC(=O)c1cn(-c2ccc(F)cc2F)c2nc(N3CCC(F)(F)C3)ccc2c1=O)C(F)(F)F (racemic) [Example 74, rac-1-(2,4-Difluorophenyl)-7-(3,3-difluoropyrrolidin-1-yl)-4-oxo-N-[1,1,1-trifluorobutan-2-yl]-1,4-dihydro-1,8-naphthyridine-3-carboxamide]
63.3 | – | CC(NC(=O)c1cn(-c2ccc(F)cc2F)c2nc(N3CCCC3=O)ccc2c1=O)C(F)(F)F (stereo not drawn) [Example 179]
95.5 | – | O=C(N[C@H](C1CC1)C(F)(F)F)c1cn(-c2c(Cl)cc(F)cc2Cl)c2nc(N3C[C@@H](O)CC3=O)ccc2c1=O [Example 387, N-[(1R)-1-Cyclopropyl-2,2,2-trifluoroethyl]-1-(2,6-dichloro-4-fluorophenyl)-7-[(4S)-4-hydroxy-2-oxopyrrolidin-1-yl]-4-oxo-1,4-dihydro-1,8-naphthyridine-3-carboxamide]
